# Data reported in PubChem BioAssay AID624418 (National Center for Advancing Translational Sciences (NCATS), 2012).
# Screen size: about 410,000 compounds; about 530 (0.13%) were called active. Inconclusive results, whose numbers are uncertain, are shown with a selection of clear calls. The call rests on the fitted dose curve; in most records, active means well fitted inhibition curve with a large enough effect; inconclusive means small, poorly fitted or top-dose-only effect, or another doubt; inactive means no such curve, though single readings can be large or run the other way. A potency beside an inconclusive call is a rough fit, not a confirmed value.
# Experiment: qHTS of GLP-1 Receptor Inverse Agonists: Cytotox Screen
# Conditions: HEK293 cAMP-luciferase reporter cells, luminescence, 24 h; activity change, negative = inhibition: at 38.3 µM (top of the series) unless noted
# Summary of the method: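 Luminescence readout: signal drop marks cytotoxicity. Plated cells grew 12 h at 37 °C, 5% CO2, received 23 nL compound for 24 h, then got luciferase reagent, read after 12 min at RT.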
# On the % scale 0 is the no-effect control and ±100 the full control effect; potency means the concentration at half of the fitted maximal effect.
Compound,Potency,"activity change, negative = inhibition"
Cc1cccc(NC(=O)c2nc(S(C)(=O)=O)ncc2Cl)c1,"inconclusive: 12.6 µM [inhibitor, partial curve, poor fit]",–
Cc1ccc(N2CCN(C(=O)c3ccccc3NC(=O)c3ccccc3C(=O)O)CC2)cc1,–,inactive: 0.76%
O=C(Nc1nc2ccccc2n1CCN1CCCC1)c1ccc(Cl)cc1,"inconclusive: 28.2 µM [inhibitor, single point]",–
COc1ccc(-c2ccc3c(N)c(C(=O)NCc4ccc(Cl)cc4)sc3n2)cc1,–,inactive: 2.66%
CCN1CCN(c2nc(NCCO)c3ccccc3n2)CC1,–,inactive: 2.31%
Cc1cc(=O)oc2c1ccc1oc(/C(=N/O)c3ccccc3)c(C)c12,"inconclusive: 14.1 µM [inhibitor, single point]",–
O=C(c1ccccc1)N1CCN(c2ccc([N+](=O)[O-])c(NCC3CCCO3)c2)CC1 (stereo not drawn),"inconclusive: 14.1 µM [inhibitor, single point]",–
Cc1ccc(S(=O)(=O)N(CC(=O)N2CCCC2)C2CCCCC2)cc1,"inconclusive: 8.91 µM [inhibitor, partial curve]",–
Cc1ccc(C(=O)O)cc1Nc1nc2ccccc2n2nnnc12,–,inactive: 1.47%
COc1cc(CN2CCNC(=O)C2CC(=O)N2CCCN(C(C)=O)CC2)cc(OC)c1 (stereo not drawn),–,inactive: 11.4%
O=C(NC(=S)NC1CCCCC1)c1ccc(Cl)cc1,"inconclusive: 11.2 µM [inhibitor, partial curve, poor fit]",–
COc1ccccc1NC(=O)c1ccc(SCC(=O)NCc2ccccc2Cl)c([N+](=O)[O-])c1,"inconclusive: 28.2 µM [inhibitor, single point]",–
Cc1ccc(NC(=O)Cn2nnc(-c3nc(-c4ccncc4)no3)c2N)cc1,–,inactive: -4.48%
COc1ccc(C(CNC(=O)c2cc3c(s2)CCC(C)C3)N2CCCC2)cc1 (stereo not drawn),"inconclusive: 11.2 µM [inhibitor, single point]",–
O=C(O)c1cc(=O)cc(C(=O)O)[nH]1,–,inactive: 0.399%
CC(C)(C)CC(C)(C)NC(=O)Nc1cccc([N+](=O)[O-])c1,"inconclusive: 31.6 µM [inhibitor, single point]",–
COc1cc(/C=N/NC2=NS(=O)(=O)c3ccccc32)ccc1OC(C)=O,"inconclusive: 12.6 µM [inhibitor, single point]",–
Cc1ccc(S(=O)(=O)/N=C2\C(=O)c3ccccc3C([O-])=C2n2cc[n+](CCC(C)C)c2)cc1,–,inactive: -25%
COc1cc(OC)cc(C(=O)NC(=S)Nc2ccc(N3CCCC3)cc2)c1,"inconclusive: 3.98 µM [inhibitor, full curve, poor fit]",–
Cc1cccc(N(C(=O)CNC(=O)c2ccco2)C(C(=O)NC2CCCC2)c2cccnc2)c1C (stereo not drawn),–,inactive: 0.502%
NC1=NC(=O)/C(=C\c2ccc(O)c([N+](=O)[O-])c2)S1,"inconclusive: 10 µM [inhibitor, single point]",–
O=C1C=CC(O)(c2cc(=O)c3c(O)cc(O)cc3o2)C=C1,"inconclusive: 7.08 µM [inhibitor, partial curve, poor fit]",–
Cc1cc(C)c(NC(=S)N(CCN(C)C)Cc2cccs2)c(C)c1,"inconclusive: 12.6 µM [inhibitor, single point]",–

Compound,Potency,"activity change, negative = inhibition"
O=C(N/N=C/c1ccccn1)c1cc(-c2ccc(Br)cc2)nc2ccccc12,"inconclusive: 1.26 µM [inhibitor, full curve, poor fit]",–
Nn1c(SCC(=O)Nc2ccccc2Br)nnc1-c1ccco1,–,inactive: -2.24%
Cc1ccc(-n2c(O)c(C=Nc3ccccc3-c3n[nH]c(=S)[nH]c3=O)c3ccccc3c2=O)c(C)c1,–,inactive: -20.5%
CC(=O)/C(C#N)=C1\NC(=O)C(Cc2ccc(F)cc2)S1 (stereo not drawn),"inconclusive: 31.6 µM [inhibitor, single point]",–
COc1ccc(NC(=O)N(C)[C@H]2C[C@H]3c4[nH]c5ccc(-c6ccc7c(c6)OCO7)cc5c4CCN3C[C@H]2[C@H](C)O)cc1,"inconclusive: 12.6 µM [inhibitor, single point]",–
O=C(C1CCCN(c2ncnc3c2nc2n3CCCCC2)C1)N1CCN(c2cccc(Cl)c2)CC1 (stereo not drawn),"inconclusive: 22.4 µM [inhibitor, single point]",–
O=C(NCCNC(=O)c1ccccn1)c1ccc(F)cc1,"inconclusive: 7.94 µM [inhibitor, partial curve]",–
O=C(Cn1nc2c(cc1=O)CCCC2)Nc1ccccc1C(F)(F)F,–,inactive: 0.0073%
OC(CN1CCCCC1)Cn1c2ccc(Cl)cc2c2cc(Cl)ccc21 (stereo not drawn),"inconclusive: 28.2 µM [inhibitor, single point]",–
CCOC(=O)C1=C(C)N=c2s/c(=C\c3ccc(OC(C)=O)c(OCC)c3)c(=O)n2C1/C=C/c1ccccc1 (stereo not drawn),"inconclusive: 28.2 µM [inhibitor, single point]",–
O=C(CCCN1C(=O)/C(=C/c2ccccc2Cl)SC1=S)N1CCOCC1,–,inactive: 6.8%
CC1CC2=C(NC(=S)NC2c2ccccc2F)/C(=C/c2ccccc2F)C1 (stereo not drawn),"inconclusive: 22.4 µM [inhibitor, single point]",–
CCCc1ccc(C2Sc3ccccc3NC3=C2C(=O)c2ccccc23)cc1 (stereo not drawn),"inconclusive: 10 µM [inhibitor, partial curve, poor fit]",–
CCOc1ccc(C(C(=O)NC2CCCC2)N(Cc2ccccc2)C(=O)c2nsc(Cl)c2Cl)cc1 (stereo not drawn),–,inactive: 2.63%
COc1cc2c(cc1OC)C(c1cc(OC)c(OC)c(OC)c1)C1(O)C(=O)OCC1(O)C2 (stereo not drawn),"inconclusive: 28.2 µM [inhibitor, single point]",–
COc1ccccc1C(=O)Nc1nc(-c2ccc(S(=O)(=O)N3CCOCC3)cc2)cs1,"inconclusive: 10 µM [inhibitor, single point]",–
CCO[C@@H]1OC(C(=O)O)=C[C@H](c2ccc3c(c2)OCO3)[C@H]1CCCO,"inconclusive: 5.01 µM [inhibitor, partial curve, poor fit]",–
CC1CC(=O)N(c2ccc(NCCc3ccc(O)cc3)c([N+](=O)[O-])c2)C1=O (stereo not drawn),"inconclusive: 10 µM [inhibitor, partial curve]",–
Cc1ccc(C)c(CSCc2nc3ccccc3[nH]2)c1,"inconclusive: 28.2 µM [inhibitor, single point]",–
CCOc1ccccc1CNC(=O)c1cnc2sc(N3CCCCCC3)nn2c1=O,–,inactive: -1.94%
COc1ccc(-n2ccn(CC(=O)NCCc3ccccc3)c(=O)c2=O)cc1OC,–,inactive: -3.82%
CCOc1ccc(Nc2nc3cc(S(=O)(=O)CC)ccc3o2)cc1,"inconclusive: 15.8 µM [inhibitor, single point]",–
O=C(CC1C(=O)NCCN1C(=O)Nc1ccc(F)cc1F)Nc1ccc(F)cc1 (stereo not drawn),"inconclusive: 28.2 µM [inhibitor, single point]",–

Compound,Potency,"activity change, negative = inhibition"
COc1cccc(C2c3cc4c(cc3OC(NNC(N)=O)C2C)OCO4)c1O (stereo not drawn),"inconclusive: 2.82 µM [inhibitor, full curve]",–
CC(=O)NC(c1ccc(C)cc1)c1cc([N+](=O)[O-])c2cccnc2c1O (stereo not drawn),"inconclusive: 7.94 µM [inhibitor, partial curve]",–
Cc1ccc(CSC2=NCCN2S(=O)(=O)c2ccccc2)cc1,–,inactive: -1.79%
CCN(CC)C1=CC(=O)OC12CCCCC2,–,inactive: 5.98%
C#Cc1ccc([C@@H]2C=C(C(=O)N3CCOCC3)O[C@H](OCC)[C@H]2CCCO)cc1,"inconclusive: 0.708 µM [inhibitor, full curve, poor fit]",–
COc1ccc(CCC(=O)NCCOc2ccc(C)cc2)cc1,–,inactive: -2.99%
CN(C)c1ccc(N=Nc2ccccc2C(=O)OCC(=O)N2CCCCCC2)cc1,"inconclusive: 28.2 µM [inhibitor, single point]",–
CC(=O)N/C(=C\c1ccc2c(c1)OCO2)C(=O)NC(C(=O)O)c1ccccc1 (stereo not drawn),–,inactive: 0.823%
CC(C)C[C@H](NC(=O)c1nc[nH]c1C(=O)N[C@@H](CC(C)C)C(=O)OC(C)(C)C)C(=O)OCc1ccccc1,–,inactive: -13.3%
CN(CC(=O)Nc1ccc(Cl)cc1)C(=O)c1cccc(S(=O)(=O)N2CCN(Cc3ccccc3)CC2)c1,"inconclusive: 28.2 µM [inhibitor, single point]",–
O=C(CN(Cc1ccco1)C(=O)c1ccc([N+](=O)[O-])cc1)Nc1ccccc1C(F)(F)F,–,inactive: -10.7%
Cc1cc(Br)c2c(c1)[C@](O)(c1cn(C)c3ccccc13)C(=O)N2C,–,inactive: -8.55%
COC/C=C/C1=CC2=CC(=O)C(C)(OC(=O)c3cnc4ccccc4n3)C(=O)C2=CN1Cc1ccco1 (stereo not drawn),"inconclusive: 28.2 µM [inhibitor, single point]",–
NNc1nc2cccnc2n(CCNc2ncc(C(F)(F)F)cc2Cl)c1=O,–,inactive: 23.3%
Cc1ccc2c(c1)c(N=NC(N)=S)c(O)n2Cc1ccccc1,"inconclusive: 3.16 µM [inhibitor, full curve, poor fit]",–
CCC(C)NC(=S)Nc1ccc2nc(N3CCN(CC)CC3)cc(C)c2c1 (stereo not drawn),"inconclusive: 10 µM [inhibitor, single point]",–
O=C(c1[nH]c(C(F)(F)F)nc1-c1ccccc1)N1CCN(c2ccccc2)CC1,"inconclusive: 1.58 µM [inhibitor, partial curve, poor fit]",–
CCN(CC)c1cc(C)c2cc(NC(=O)c3ccccc3OC)ccc2n1,"inconclusive: 17.8 µM [inhibitor, single point]",–
CCn1nc(NC(=O)C(C)C)c2cc3cccc(C)c3nc21,–,inactive: 145%
O=C(Nc1nc(-c2cccs2)cs1)c1ccc(S(=O)(=O)N2CCCCC2)cc1,–,inactive: -12.2%
COc1ccccc1CCN1C(=S)NC(C)(C)CC1(C)O (stereo not drawn),"inconclusive: 10 µM [inhibitor, partial curve, poor fit]",–
Cc1cccc(C)c1NC(=S)NN(Cc1ccccc1)c1ccccc1,"inconclusive: 11.2 µM [inhibitor, partial curve, poor fit]",–
